Structures are written as SMILES. Structures can show the parent of a compound that is named as a salt. Some of the results follow. Repeats are few or missing, and single values can be far off.
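Also: primary screen of an FDA-approved drug library in HeLa reporter cells in 96-well format, CellMask signal normalized to DMSO-treated wells set as 1, under 0.5 deemed highly cytotoxic.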

In the assay the test system is HeLa VPS33A reporter cells. The assay can be described thus: relative cell viability (CellMask signal) vs DMSO (fraction of DMSO); HeLa model of a glycosaminoglycan (GAG) storage disease; KI is knock-in and KO knock-out; SDC1 is syndecan 1; higher = less cytotoxic. Particulars: 50 µM; 24 h.
The compound `CN(C)C/C=C/C(=O)Nc1cc2c(Nc3ccc(F)c(Cl)c3)ncnc2cc1O[C@H]1CCOC1` [Afatinib (BIBW2992)] showed a relative cell viability of 0.006.

Consider `Nc1ccc2cc3ccc(N)cc3nc2c1` [Proflavine Hemisulfate], for which the relative cell viability stood at 0.0151.

With `CC(C)(C)Cn1c(N)nc2ccc(-c3[nH]c(C(C)(C)C)nc3-c3ccc(F)cc3)nc21`, the relative cell viability is 0.00454.

The compound `C=C1C(=O)O[C@@H]2/C=C(\C)CC/C=C(\C)CC[C@@H]12` [Costunolide*] registered a relative cell viability of 0.00348. For the compound `CCOc1cc2ncc(C#N)c(Nc3ccc(F)c(Cl)c3)c2cc1NC(=O)/C=C/CN(C)C` [Pelitinib (EKB-569)], the relative cell viability is 0.00402. To `Cc1[nH]c2ccccc2c1CCNCc1ccc(/C=C/C(=O)NO)cc1` [Panobinostat (LBH589)] belongs 0.00749; to `CCOc1cc2ncc(C#N)c(Nc3ccc(OCc4ccccn4)c(Cl)c3)c2cc1NC(=O)/C=C/CN(C)C` [Neratinib (HKI-272)], 0.0104.

Regarding `CCN(CC)CCCC(C)Nc1c2ccc(Cl)cc2nc2ccc(OC)cc12` (configuration not stated) [Quinacrine 2HCl], the relative cell viability was 0.00406. The same measure for `COc1cc2c(cc1O)CC[C@@H]1[C@@H]2CC[C@]2(C)[C@@H](O)CC[C@@H]12` [2-Methoxyestradiol (2-MeOE2)]: 0.324. To `CNCCCN1c2ccccc2CCc2ccccc21` [Desipramine hydrochloride] belongs 0.0184; to `CN(C)C(=O)C(CCN1CCC(O)(c2ccc(Cl)cc2)CC1)(c1ccccc1)c1ccccc1` [Loperamide HCl], 0.0507. To `C[C@]12CC[C@H](O)CC1=CC[C@@H]1[C@@H]2CC[C@]2(C)C(c3cccnc3)=CC[C@@H]12` [Abiraterone] belongs 0.0199.
